According to PubChem BioAssay AID1460 (National Center for Advancing Translational Sciences (NCATS), 2008):
Hit rate of the full screen: of about 270,000 compounds, about 5,800 (2.1%) were called active. This list was built around the results that the source calls inconclusive (neither active nor inactive); the mix of calls is not that of the screen. Calls come from the whole dose curve; as a rule, active = well fitted inhibition curve with a large enough effect; inconclusive = small, poorly fitted or top-dose-only effect; inactive = flat fitted curve, though single readings scatter. Potencies of inconclusive entries are doubtful fits and often do not repeat.

Target: Microtubule-associated protein tau (Homo sapiens) (UniProt P10636)
Test: qHTS for Inhibitors of Tau Fibril Formation, Thioflavin T Binding; note: nearly all actives have a fitted effect of over 55% in size
Conditions: recombinant tau K18 P301L (four-repeat tau fragment), heparin-induced fibrillization, ThT fluorescence; series mostly up to 57.4 µM
Method in brief: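 Heparin-induced (20 uM) aggregation of recombinant human K18 P301L tau, 15 uM unlabeled with 0.24 uM labeled, pH 7 acetate buffer, 6 hr at 37 C with compound. Fibrils quantified by 30 uM ThT fluorescence after 1 hr ambient incubation.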
Potency is the fitted concentration of half-maximal effect; tags give direction and shape of the fitted curve.

UniProt P10636, sequence (P10636 whole entry, looked up): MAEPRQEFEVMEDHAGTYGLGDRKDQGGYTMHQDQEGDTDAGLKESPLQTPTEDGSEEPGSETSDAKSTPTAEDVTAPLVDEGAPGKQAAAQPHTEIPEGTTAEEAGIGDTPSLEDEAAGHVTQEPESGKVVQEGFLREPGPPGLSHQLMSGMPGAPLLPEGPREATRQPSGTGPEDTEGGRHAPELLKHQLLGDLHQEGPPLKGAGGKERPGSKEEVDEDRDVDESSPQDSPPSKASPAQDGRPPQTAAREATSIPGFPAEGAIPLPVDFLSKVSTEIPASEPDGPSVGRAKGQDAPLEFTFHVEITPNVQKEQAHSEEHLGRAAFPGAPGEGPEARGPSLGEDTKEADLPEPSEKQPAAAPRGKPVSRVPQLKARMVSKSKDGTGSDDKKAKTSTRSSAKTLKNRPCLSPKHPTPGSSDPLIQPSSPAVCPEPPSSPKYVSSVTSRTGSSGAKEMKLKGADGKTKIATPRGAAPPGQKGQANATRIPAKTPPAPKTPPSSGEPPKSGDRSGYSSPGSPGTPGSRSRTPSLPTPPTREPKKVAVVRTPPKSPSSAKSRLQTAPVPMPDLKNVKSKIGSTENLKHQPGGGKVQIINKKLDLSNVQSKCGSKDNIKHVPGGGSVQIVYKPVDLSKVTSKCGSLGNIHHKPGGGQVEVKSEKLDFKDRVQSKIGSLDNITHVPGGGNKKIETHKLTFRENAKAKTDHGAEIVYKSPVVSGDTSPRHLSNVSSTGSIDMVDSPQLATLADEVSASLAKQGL

Question: For `O=C(NNC1=Nc2cccc3cccc1c23)c1ccccc1Br`, which Potency is on record?
Answer: The Potency was inconclusive: 5.62 µM [inhibitor, full curve].

Question: Which Potency does the source give for `Cc1c(CN(C)C)c2c(n1Cc1ccccc1)C(=O)c1ccccc1-2` here?
Answer: The Potency was inconclusive: 14.1 µM [inhibitor, partial curve].

Question: With `CN1c2ccccc2Oc2nnc(N3CCN(Cc4ccccc4)CC3)cc21` as the molecule, how does the Potency read?
Answer: The Potency was inconclusive: 10 µM [inhibitor, partial curve].

Question: For `CCOC(=O)c1cc(-c2ccccc2)n(CCCC(=O)Nc2cccc(Cl)c2C)c1C`, which Potency is on record?
Answer: The Potency was inconclusive: 3.16 µM [inhibitor, single point].

Question: How did the Potency turn out when `CC(=O)Nc1ccc(N2CCN(c3ccc(C(F)(F)F)cn3)CC2)nc1` was run?
Answer: The Potency was inconclusive: 4.47 µM [inhibitor, full curve].

Question: With `O=C(NCc1ccncc1)C1CCCCC1` as the molecule, how does the Potency read?
Answer: The Potency was “inactive”.

Question: Which Potency does the source give for `Cc1cc(C)cc(NC(=O)Cn2nnc(C(=O)Nc3cc(C)cc(C)c3)c2N)c1` here?
Answer: The Potency was inconclusive: 39.8 µM [inhibitor, single point].

Question: How did the Potency turn out when `C#CCOCCOCCOCCNc1nc(N2CCN(C(=O)[C@H]([C@@H](C)CC)n3cc([C@@H](N)Cc4ccc(O)cc4)nn3)CC2)nc(N2CCN(C(=O)[C@H](Cc3cc4ccccc4[nH]3)n3cc([C@@H](N)C(C)CC)nn3)CC2)n1` (stereo partly drawn) was run?
Answer: Its Potency is inconclusive: 28.2 µM [inhibitor, single point].

Question: How did the Potency turn out when `Cc1nc(-c2ccc(F)cc2)sc1CCNC(=O)c1ccco1` was run?
Answer: The Potency was inconclusive: 3.16 µM [inhibitor, full curve].

Question: `CCCCCC(=O)N1CCN(CCN=CC2=C(O)CC(c3ccc(OC)c(OC)c3)CC2=O)CC1` (stereo not drawn) was tested. Which Potency did it give?
Answer: Its Potency is inconclusive: 20 µM [inhibitor, partial curve].

Question: How did the Potency turn out when `COc1ccc(NC(=O)Cn2nnc(C(=O)NCc3ccccc3Cl)c2N)cc1Cl` was run?
Answer: The Potency was “inactive”.

Question: How did the Potency turn out when `O=C(C[n+]1cccc2ccccc21)c1ccc([N+](=O)[O-])cc1` was run?
Answer: Its Potency is inconclusive: 3.16 µM [inhibitor, full curve].

Question: For `COc1ccc(O)c(-c2cc(-c3cccc(Br)c3)n[nH]2)c1`, which Potency is on record?
Answer: Its Potency is inconclusive: 10 µM [inhibitor, partial curve].

Question: Which Potency does the source give for `COc1ccc(CCn2c3c(c(=O)[nH]c2=O)C(NC(=O)c2ccccc2)(C(F)(F)F)C(=O)N3)cc1OC` (stereo not drawn) here?
Answer: The Potency was “inactive”.

Question: `CCCN1C(=O)/C(=C/C=C2\N(CC)c3ccccc3C2(C)C)SC1=S` was tested. Which Potency did it give?
Answer: The Potency was inconclusive: 3.98 µM [inhibitor, full curve].

Question: Which Potency does the source give for `O=C(CSc1nnnn1C1CCCC1)Nc1cccc(NC(=O)c2ccco2)c1` here?
Answer: The Potency was “inactive”.

Question: For `COc1cc(OC)c(-c2c3cc(O)c(=O)cc-3oc3cc(O)c(O)cc23)cc1OC`, which Potency is on record?
Answer: Its Potency is active: 12.6 µM.

Question: With `CCCCn1c(/C=C/c2ccco2)nc2ccccc21` as the molecule, how does the Potency read?
Answer: Its Potency is inconclusive: 39.8 µM [inhibitor, single point].

Question: `COc1cc(/C=N/Nc2ccc(C(=O)O)cc2)ccc1O` was tested. Which Potency did it give?
Answer: The Potency was inconclusive: 12.6 µM [inhibitor, partial curve].

Question: Which Potency does the source give for `Cc1cc(Oc2ccc(=O)n(C)n2)nc(=S)[nH]1` here?
Answer: Its Potency is inconclusive: 25.1 µM [inhibitor, single point].

Question: `Cc1oc(C2CC2)cc1C(=O)O` was tested. Which Potency did it give?
Answer: The Potency was inconclusive: 14.1 µM [inhibitor, partial curve].

Question: How did the Potency turn out when `Nc1cccc(-c2cc3ccccc3oc2=O)c1` was run?
Answer: Its Potency is inconclusive: 15.8 µM [inhibitor, partial curve].

Question: Which Potency does the source give for `CC(=O)c1c(C)[nH]c(C(=O)Nc2ccc(C)c(C)c2)c1C` here?
Answer: The Potency was inconclusive: 2.82 µM [inhibitor, full curve].

Question: How did the Potency turn out when `COc1ccc2nc(-n3c(C)ccc3C)sc2c1` was run?
Answer: The Potency was inconclusive: 25.1 µM [inhibitor, partial curve].

Question: `O=C1C(=Cc2ccc(Br)o2)C(=O)c2ccccc21` was tested. Which Potency did it give?
Answer: Its Potency is active: 6.31 µM.

Question: `CC1C(=O)NN=C1C(=O)N/N=C\c1ccc(O)cc1O` (stereo not drawn) was tested. Which Potency did it give?
Answer: Its Potency is inconclusive: 14.1 µM [inhibitor, partial curve].

Question: `Cc1ccccc1OCCNc1cc(N2CCNCC2)ccc1[N+](=O)[O-]` was tested. Which Potency did it give?
Answer: The Potency was active: 15.8 µM.

Question: Which Potency does the source give for `CCN1C(=O)/C(=C/c2cccs2)N(C)C1=S` here?
Answer: The Potency was inconclusive: 28.2 µM [inhibitor, partial curve].

Question: For `Cc1cc(=O)[nH]c(N/N=C/c2cn(CCC#N)nc2-c2ccccc2)n1`, which Potency is on record?
Answer: Its Potency is “inactive”.

Question: Which Potency does the source give for `Cn1nnnc1N=N/C(=N/Nc1ccccc1)c1ccccc1` here?
Answer: Its Potency is inconclusive: 7.08 µM [inhibitor, partial curve].

Question: `Cc1ccc(Cl)cc1N1CCN(C(=O)Cn2cnc3nc4c(cc3c2=O)CCCC4)CC1` was tested. Which Potency did it give?
Answer: Its Potency is inconclusive: 12.6 µM [inhibitor, partial curve, poor fit].

Question: `Cc1ccc(C)n1-c1nnc(N2CCCC(C(=O)NCc3ccc(F)cc3)C2)s1` (stereo not drawn) was tested. Which Potency did it give?
Answer: Its Potency is inconclusive: 39.8 µM [inhibitor, single point].

Question: `COc1ccc(-c2csc(NC(=S)NC(=O)c3cccs3)n2)cc1Br` was tested. Which Potency did it give?
Answer: The Potency was inconclusive: 1.12 µM [inhibitor, partial curve].

Question: `O=C(c1cc2cc(Br)cc(Br)c2oc1=O)N1CCCC1` was tested. Which Potency did it give?
Answer: The Potency was “inactive”.

Question: With `COc1ccc(-c2c(C)cc3oc(=O)cc(-c4ccccc4)c3c2C)cc1F` as the molecule, how does the Potency read?
Answer: Its Potency is inconclusive: 35.5 µM [inhibitor, partial curve].

Question: With `CCOc1ccc(N(C(=O)c2ccc(C)cc2)S(=O)(=O)c2ccc3c(c2)n(C)c(=O)n3C)cc1` as the molecule, how does the Potency read?
Answer: The Potency was inconclusive: 11.2 µM [inhibitor, partial curve].

Question: For `CN1CCCN(CC(O)COCc2cccs2)CC1` (stereo not drawn), which Potency is on record?
Answer: Its Potency is inconclusive: 44.7 µM [inhibitor, single point].

Question: `COc1ccc2oc(=N)c(C(=O)Nc3ccccc3)cc2c1` was tested. Which Potency did it give?
Answer: Its Potency is inconclusive: 2 µM [inhibitor, full curve].

Question: With `CSc1sc(C(=O)NC(=O)NCc2ccncc2)c(C)c1-c1ccon1` as the molecule, how does the Potency read?
Answer: The Potency was inconclusive: 28.2 µM [inhibitor, single point].

Question: How did the Potency turn out when `CCOc1ccc(Cl)cc1S(=O)(=O)n1nnc2ccccc21` was run?
Answer: Its Potency is “inactive”.

Question: For `CC(C)(C)C1CCC(=NNS(=O)(=O)c2ccc(Br)cc2)CC1` (stereo not drawn), which Potency is on record?
Answer: Its Potency is “inactive”.

Question: With `COc1ccc(/C=C/NC(=O)c2ccc(OC)cc2)cc1` as the molecule, how does the Potency read?
Answer: Its Potency is inconclusive: 1.26 µM [inhibitor, full curve].

Question: `Cc1cc2nc(CCN(Cc3cccnc3)C(=S)Nc3ccc(F)cc3)[nH]c2cc1C` was tested. Which Potency did it give?
Answer: Its Potency is “inactive”.
